Reference: the supplement of paper PMC3334620
The full ranking holds about 33,000 sequences; the median of “E-score (-0.5 to 0.5)” is about -0.035, and the highest 2% start at about 0.34. This is one part of the list.

What follows are sequences tested against T1, Mot3 (UniProt P54785) (assay: PBM E-score (8-mer binding enrichment) (E-score (-0.5 to 0.5)); higher = stronger / more preferred TF binding; most listed sequences are background and not binding sites). Settings: protein concentration: 200 nM; construct: GST-full length.
T1 sequence: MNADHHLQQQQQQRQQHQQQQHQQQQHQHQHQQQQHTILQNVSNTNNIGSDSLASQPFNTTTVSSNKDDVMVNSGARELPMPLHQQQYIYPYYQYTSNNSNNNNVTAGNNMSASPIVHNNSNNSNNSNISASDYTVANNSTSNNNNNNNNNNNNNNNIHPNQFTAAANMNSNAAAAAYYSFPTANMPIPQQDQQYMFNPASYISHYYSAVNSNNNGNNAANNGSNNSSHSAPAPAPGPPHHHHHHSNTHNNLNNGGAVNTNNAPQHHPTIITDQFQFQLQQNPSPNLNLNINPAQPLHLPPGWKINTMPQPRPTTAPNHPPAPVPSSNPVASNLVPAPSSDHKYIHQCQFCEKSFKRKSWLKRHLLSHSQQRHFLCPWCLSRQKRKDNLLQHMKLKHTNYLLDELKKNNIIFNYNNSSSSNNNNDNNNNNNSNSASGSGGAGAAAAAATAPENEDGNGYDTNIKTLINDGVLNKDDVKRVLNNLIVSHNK
Method in brief: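 Full-length yeast transcription factors or their DNA-binding domains, GST-tagged and expressed with PURExpress, were applied at about 100-200 nM to universal all-10-mer Agilent arrays. These arrays had been made double-stranded by primer extension on fresh or once-stripped slides. Detection used fluorescent anti-GST, normalisation used masliner, and E-scores for ungapped eight-base words pooled with reverse complements came from the Universal PBM Analysis Suite.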

Sequence	PBM E-score
CAACCATC	-0.207
GCAAGCCC	0.00825
CATGCGGC	0.0009
ATAGCAAA	0.0517
GTATGAGA	-0.0168
CCAAGCGA	-0.139
ATGAGGAA	0.148
AAGCGCGG	-0.00731
ATCCCATA	-0.0721
CAAGTTGG	0.00951
CCCGACAC	-0.125
CATGGTCC	-0.0336
AGTCACAA	0.067
ATACTGCG	-0.0976
AACCTTTC	-0.107
ATTGTCGG	-0.119
GCGTGAGA	-0.00843
ATTTTTGC	0.0577
AAGAGAGT	-0.0969
AACCAGCA	-0.0345
CTAGAGCC	-0.0763
CCACAACC	-0.0893
CGGAAAAG	-0.213
GGTACAGA	0.15
CAAGATAG	-0.0788

Sequence	PBM E-score
CACTCTCC	-0.141
CCTTAATA	0.277
GATGCATA	-0.153
CCCCCCCA	-0.429
ACTGGTGA	-0.071
GACCGCGA	-0.365
CCACTCAC	-0.138
CATCCTGC	-0.144
GCGATTAC	0.0831
ACAGGACC	-0.057
CCTCCCGC	-0.23
AGGGATCC	-0.223
ATGTCGCG	0.00468
CGAGAACG	-0.206
GGTATCAA	-0.062
AGCACGAG	-0.154
AATGAATT	0.112
GAAGAACC	-0.157
GCTGACCA	-0.361
GCGAGACC	-0.288
ACTTGTTC	0.162
GAAGCGTC	-0.0399
GAACGGGC	-0.257
CCTCCTCG	-0.355
AGTCTGCG	-0.148

Sequence	PBM E-score
CAGGTACC	0.434
AGTGGGTA	-0.108
GTTGGGGA	-0.12
CACATGGG	-0.0126
AGCATCCC	-0.222
AGACCGAT	-0.0276
TCTCCGCA	-0.103
CACGCAGA	0.0829
AAAAACGA	0.145
TATGGGAA	-0.212
ACTACAAC	0.102
GGTAATGA	0.0343
AAGGATGG	-0.131
GGGCTGCA	-0.312
GGCTGTAC	-0.0498
ATCGACCC	-0.0926
AAATGTTA	0.288
CAAATTAG	-0.0114
GTCTCTCA	-0.0805
ATAATACC	0.0179
CCTGGAAC	0.0951
GGGTGCAC	-0.0936
CCAGATCA	0.163
CGTCCGCC	-0.187
GATGCGGA	-0.105

Sequence	PBM E-score
ATCGTCGA	-0.081
GCTAGAAC	0.016
CCTGGCCA	-0.161
AGGTCAAC	-0.00356
GCCAAAAC	0.0697
CACACCCG	-0.0276
TAATAAAA	0.244
CTCAGCCA	-0.183
AACGCTAT	-0.166
ACGATCCT	-0.169
CAGGGCCA	-0.335
CTGATTTC	-0.145
TAGTCGCA	-0.0514
AAGAGGGC	-0.117
ACTGTCCC	-0.216
CGAATGCG	-0.0144
AGCCAGAA	-0.0671
CCTCGGAG	-0.0162
GCAATGGC	-0.308
TCAAGGCA	0.458
AACTGAAG	0.00993
AGACAGTC	-0.135
CTCATTTA	0.0667
CCAGGAAC	0.406
ATGCGGGG	-0.23

Sequence	PBM E-score
CAATATTC	-0.175
AACGGATT	0.0237
AGGTCCAA	-0.173
CAGGATAA	0.0585
AGCAATCC	-0.242
TACAAAGA	0.233
CCGGACCG	-0.264
ACCGATAG	-0.251
CATCAGAG	-0.139
CCGGCGGA	-0.24
GCTTGAAC	0.102
TACTGTGA	-0.0621
ACTGGGCG	-0.198
ACGGTGCA	0.184
CTCGGGAC	-0.235
CAAGTGCC	0.27
GGGACACC	-0.229
ACGTTGTA	0.256
CCAAAGAC	-0.109
AATGAGAT	0.126
AAGCGTAG	-0.16
ATCGCCAG	-0.289
ATAACCAG	-0.106
TCGCCGAA	-0.167
CGTGTTTC	0.106

Sequence	PBM E-score
TCCTCCGA	-0.242
ATATCAGA	0.0536
GTAGATAA	0.14
GACGCCCC	-0.19
ATTCTCTA	-0.199
CCAGATGC	-0.0578
ACACAAGT	0.164
TAAGTCCA	-0.058
CCACACAG	-0.0906
GCCATATA	0.119
ATACATAA	0.308
GCGGGATA	-0.154
AGGAGACG	-0.0922
CGCAAGAC	-0.221
AGTTACCA	0.0718
AGCATGGC	0.0473
CATGTGCA	0.0911
ACGGAGGG	-0.169
CCTGTACA	0.335
GGTAAATA	0.0914
CCAATTCA	0.0279
CTTAAGTA	-0.0145
ATGCAGGA	0.0312
GTTACGTA	0.177
CATAGAAA	0.111

Sequence	PBM E-score
GCTAGACC	-0.284
CAGCGACG	-0.0741
AACGATGT	0.254
CAGGCATG	0.358
AGCGATCC	-0.246
GCTCTGGA	-0.0935
AGCTCCCT	-0.0912
GCACGAGA	-0.136
GCCGGTTA	-0.104
AGCTCCAG	-0.196
CCGCGATA	-0.272
CATTTTAA	0.116
CATCATGG	-0.316
GCTTTTGA	-0.0531
CCATCGGC	-0.207
CTCTTCAC	0.047
AATAATCA	0.0478
CAATTAGA	0.0319
CACGTGAC	0.0586
CAACCAGG	0.0692
ATCTACGA	0.00719
AAGTTATG	0.171
